The supplement of paper PMC4967469
By IC50 is meant the dose at which the fit gives 50% viability; a limit (>, <) means that the fit lies beyond the doses tested. The AUC spans the tested range (256-fold, ending at the top dose) of the same fit; values near 1 show little effect. For some assays here: Any top dose called inferred comes from the curve model; the source does not state it. For some assays here: An entry number marks a drug with two screens in the source, which often give different values.

Columns and labels:
Experiment in all cases: Viability of human cancer cell lines after 72 h of drug (GDSC screen)
PAC-1 = compound: C=CCc1cccc(/C=N/NC(=O)CN2CCN(Cc3ccccc3)CC2)c1O [PAC-1]; settings: top dose 2.56 µM
Description: (§1)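 Human cancer cell lines in 384-well plates, medium with 10% serum, drug for 72 h over a 256-fold dose range (nine 2-fold or five 4-fold steps up to the top dose). Adherent lines were fixed and stained with the nucleic acid dye Syto60, suspension lines read with resazurin; signal relative to control wells, capped at 0 and 100%. One two-parameter sigmoid per drug and line, fitted in a mixed model over all curves with the slope shared within a line.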

KIN001-135 = compound: COc1cc2ncn(-c3cc(OCc4ccccc4S(C)(=O)=O)c(C#N)s3)c2cc1OC [KIN001-135]; settings: top dose 5 µM; top dose inferred
Description: as §1

Parthenolide = compound: C=C1C(=O)O[C@H]2[C@H]1CC/C(C)=C/CC[C@@]1(C)O[C@@H]21 [Parthenolide]; settings: top dose 5 µM
Description: as §1

BMS-708163 = compound: NC(=O)[C@@H](CCC(F)(F)F)N(Cc1ccc(-c2ncon2)cc1F)S(=O)(=O)c1ccc(Cl)cc1 [BMS-708163]; settings: top dose 5 µM; screen: GDSC drug entry 1072; top dose inferred
Description: as §1

Cell Line | AUC (PAC-1) | IC50 (PAC-1) [µM] | AUC (KIN001-135) | IC50 (KIN001-135) [µM] | AUC (Parthenolide) | IC50 (Parthenolide) [µM] | AUC (BMS-708163) | IC50 (BMS-708163) [µM]
NCI-H1876 (small cell lung carcinoma, adherent) | 0.979 | > 2.56 | 0.986 | > 5 | 0.924 | > 5 | 0.98 | > 5
NCI-H1963 (small cell lung carcinoma, suspension) | 0.934 | > 2.56 | 0.991 | > 5 | 0.866 | 3.53 | 0.991 | > 5
NCI-H1975 (lung adenocarcinoma, adherent) | 0.961 | > 2.56 | 0.983 | > 5 | 0.974 | > 5 | 0.979 | > 5
NCI-H2081 (small cell lung carcinoma, suspension) | 0.987 | > 2.56 | 0.985 | > 5 | 0.986 | > 5 | 0.989 | > 5
NCI-H2135 (non-small cell lung carcinoma, adherent) | 0.989 | > 2.56 | 0.987 | > 5 | 0.985 | > 5 | 0.984 | > 5
NCI-H2141 (small cell lung carcinoma, suspension) | 0.97 | > 2.56 | 0.979 | > 5 | 0.99 | > 5 | 0.989 | > 5
NCI-H2227 (small cell lung carcinoma, semi-adherent) | 0.983 | > 2.56 | 0.969 | > 5 | 0.984 | > 5 | 0.958 | > 5
NCI-SNU-1 (stomach, suspension) | 0.959 | > 2.56 | 0.985 | > 5 | 0.959 | > 5 | 0.981 | > 5
NCI-SNU-5 (stomach, suspension) | 0.987 | > 2.56 | 0.983 | > 5 | 0.98 | > 5 | 0.986 | > 5
NCI-SNU-16 (stomach, suspension) | 0.989 | > 2.56 | 0.965 | > 5 | 0.969 | > 5 | 0.985 | > 5
NEC8 (testis, adherent) | 0.922 | > 2.56 | 0.99 | > 5 | 0.903 | 4.86 | 0.939 | > 5
NH-12 (neuroblastoma, adherent) | 0.757 | 0.979 | 0.985 | > 5 | 0.95 | > 5 | 0.913 | > 5
NKM-1 (acute myeloid leukaemia, suspension) | 0.786 | 1.14 | 0.984 | > 5 | 0.942 | > 5 | 0.984 | > 5
NMC-G1 (glioma, adherent) | 0.981 | > 2.56 | 0.979 | > 5 | 0.982 | > 5 | 0.815 | 3.55
NOMO-1 (acute myeloid leukaemia, suspension) | 0.951 | > 2.56 | 0.976 | > 5 | 0.981 | > 5 | 0.982 | > 5
NOS-1 (osteosarcoma, adherent) | 0.827 | 2.08 | 0.961 | > 5 | 0.975 | > 5 | 0.98 | > 5
NTERA-2 cl.D1 (testis, adherent) | 0.879 | > 2.56 | 0.985 | > 5 | 0.962 | > 5 | 0.984 | > 5
OCI-AML2 (acute myeloid leukaemia, suspension) | 0.959 | > 2.56 | 0.995 | > 5 | 0.917 | 4.05 | 0.993 | > 5
OCI-AML3 (acute myeloid leukaemia, suspension) | 0.991 | > 2.56 | 0.99 | > 5 | 0.991 | > 5 | 0.991 | > 5
OCI-AML5 (acute myeloid leukaemia, suspension) | 0.984 | > 2.56 | 0.986 | > 5 | 0.869 | 3.93 | 0.985 | > 5

Cell Line | AUC (PAC-1) | IC50 (PAC-1) [µM] | AUC (KIN001-135) | IC50 (KIN001-135) [µM] | AUC (Parthenolide) | IC50 (Parthenolide) [µM] | AUC (BMS-708163) | IC50 (BMS-708163) [µM]
OCI-LY-19 (B-cell lymphoma, suspension) | 0.73 | 0.678 | 0.987 | > 5 | 0.822 | 2.62 | 0.986 | > 5
OCI-M1 (acute myeloid leukaemia, suspension) | 0.994 | > 2.56 | 0.995 | > 5 | 0.944 | > 5 | 0.992 | > 5
OCUB-M (breast, adherent) | 0.981 | > 2.56 | 0.983 | > 5 | 0.91 | > 5 | 0.988 | > 5
OMC-1 (cervix, adherent) | 0.987 | > 2.56 | 0.988 | > 5 | 0.988 | > 5 | 0.984 | > 5
ONS-76 (medulloblastoma, adherent) | 0.917 | > 2.56 | 0.984 | > 5 | 0.975 | > 5 | 0.928 | > 5
OPM-2 (myeloma, suspension) | 0.969 | > 2.56 | 0.977 | > 5 | 0.947 | > 5 | 0.993 | > 5
OS-RC-2 (kidney, adherent) | 0.9 | > 2.56 | 0.965 | > 5 | 0.865 | > 5 | 0.978 | > 5
P30-OHK (lymphoblastic leukaemia, suspension) | 0.852 | 1.49 | 0.987 | > 5 | 0.937 | > 5 | 0.986 | > 5
P31-FUJ (acute myeloid leukaemia, suspension) | 0.99 | > 2.56 | 0.996 | > 5 | 0.996 | > 5 | 0.996 | > 5
P32-ISH (Burkitt lymphoma, suspension) | 0.738 | 0.617 | 0.995 | > 5 | 0.822 | 2.03 | 0.994 | > 5
PF-382 (T-cell lymphoblastic leukaemia, suspension) | 0.807 | 1.12 | 0.989 | > 5 | 0.953 | > 5 | 0.991 | > 5
PSN1 (pancreas, adherent) | 0.876 | 1.87 | 0.991 | > 5 | 0.95 | > 5 | 0.987 | > 5
QIMR-WIL (acute myeloid leukaemia, suspension) | 0.849 | 1.83 | 0.981 | > 5 | 0.884 | > 5 | 0.984 | > 5
RC-K8 (B-cell lymphoma, suspension) | 0.934 | > 2.56 | 0.986 | > 5 | 0.985 | > 5 | 0.992 | > 5
RCC10RGB (kidney, adherent) | 0.942 | > 2.56 | 0.969 | > 5 | 0.89 | > 5 | 0.97 | > 5
REH (B-cell leukaemia, suspension) | 0.76 | 0.866 | 0.987 | > 5 | 0.933 | > 5 | 0.979 | > 5
RF-48 (stomach, adherent) | 0.859 | > 2.56 | 0.966 | > 5 | 0.83 | 3.66 | 0.985 | > 5
RH-1 (rhabdomyosarcoma, adherent) | 0.934 | > 2.56 | 0.991 | > 5 | 0.991 | > 5 | 0.992 | > 5
RKO (large intestine, adherent) | 0.985 | > 2.56 | 0.985 | > 5 | 0.849 | 3.33 | 0.984 | > 5
RL (B-cell lymphoma, suspension) | 0.99 | > 2.56 | 0.95 | > 5 | 0.976 | > 5 | 0.99 | > 5

Cell Line | AUC (PAC-1) | IC50 (PAC-1) [µM] | AUC (KIN001-135) | IC50 (KIN001-135) [µM] | AUC (Parthenolide) | IC50 (Parthenolide) [µM] | AUC (BMS-708163) | IC50 (BMS-708163) [µM]
ROS-50 (B-cell leukaemia, suspension) | 0.918 | > 2.56 | 0.985 | > 5 | 0.981 | > 5 | 0.984 | > 5
RPMI-6666 (Hodgkin lymphoma, suspension) | 0.777 | 1.25 | 0.955 | > 5 | 0.849 | 4.98 | 0.967 | > 5
RPMI-8402 (T-cell lymphoblastic leukaemia, suspension) | 0.822 | 1.19 | 0.99 | > 5 | 0.962 | > 5 | 0.941 | > 5
RPMI-8866 (chronic myeloid leukaemia, suspension) | 0.961 | > 2.56 | 0.977 | > 5 | 0.985 | > 5 | 0.988 | > 5
RS4-11 (leukaemia, suspension) | 0.773 | 0.912 | 0.988 | > 5 | 0.975 | > 5 | 0.983 | > 5
Raji (Burkitt lymphoma, suspension) | 0.833 | 1.51 | 0.99 | > 5 | 0.961 | > 5 | 0.989 | > 5
Ramos-2G6-4C10 (Burkitt lymphoma, suspension) | 0.941 | > 2.56 | 0.991 | > 5 | 0.952 | > 5 | 0.991 | > 5
SBC-1 (small cell lung carcinoma, suspension) | 0.979 | > 2.56 | 0.989 | > 5 | 0.971 | > 5 | 0.989 | > 5
SCH (stomach, adherent) | 0.988 | > 2.56 | 0.988 | > 5 | 0.984 | > 5 | 0.936 | > 5
SF126 (glioma, adherent) | 0.963 | > 2.56 | 0.986 | > 5 | 0.913 | > 5 | 0.977 | > 5
SF268 (glioma, adherent) | 0.905 | > 2.56 | 0.984 | > 5 | 0.921 | > 5 | 0.96 | > 5
SH-4 (melanoma, adherent) | 0.973 | > 2.56 | 0.925 | > 5 | 0.912 | > 5 | 0.947 | > 5
SHP-77 (small cell lung carcinoma, semi-adherent) | 0.946 | > 2.56 | 0.987 | > 5 | 0.985 | > 5 | 0.972 | > 5
SIMA (neuroblastoma, adherent) | 0.845 | 2.22 | 0.955 | > 5 | 0.974 | > 5 | 0.938 | > 5
SJSA-1 (bone, adherent) | 0.882 | > 2.56 | 0.96 | > 5 | 0.954 | > 5 | 0.978 | > 5
SK-ES-1 (Ewing sarcoma, semi-adherent) | 0.839 | 1.92 | 0.968 | > 5 | 0.937 | > 5 | 0.976 | > 5
SK-LMS-1 (soft tissue, adherent) | 0.978 | > 2.56 | 0.987 | > 5 | 0.859 | 3.81 | 0.987 | > 5
SK-MEL-1 (melanoma, suspension) | 0.993 | > 2.56 | 0.992 | > 5 | 0.993 | > 5 | 0.993 | > 5
